Laboratory results reported in the supplement of paper PMC8674133.
Numbering of substitutions follows the chain as printed. Recombinant human monoclonal antibodies (heavy:light variable regions). ELISA EC50 on the named antigen, from 10 µg/ml down; IC50 / IC90 against spike pseudovirus on 293T-ACE2 cells, 48 h; lower = stronger. Calls: IC50 above 1,000 ng/ml = non-neutralizing; EC50 above 2,000 ng/ml = non-binder. The source prints 1000 for neutralization that was not reached; it is given as >1000 ng/ml. A few antibodies were first reported in earlier work of the same group.

B1: C2328 (protein)
chain 1: EVQLVESGGGLIQPGGSLRLSCAASGFTVSSSYMHWVRQAPGKGLEWISVIYSSGNTFSPDSMKGRFTISRDNSKNMVYLHMDSLRVEDTAVYYCARGHCSTTSCFRDGQDVWGQGTTVTVSS
chain 2: DIQLTQSPSSLSASVGDRVTITCRASQTIDGYLNWYQQKPGKAPRLLIYAASSLQSGVPSRFSGSGSGTDFTLTISSLQPEDFATYYCQQSYNTLSFGGGTKVEIK
B2: C2308 (protein)
chain 1: EVQLVESGGGLVQPGGSLRLSCAASGFTVSSNYMSWVRQAPGKGLEWVSVIYSGGSTYYADSVKGRFTISRDNSKNTLYLQMNSLRAEDTAVYYCARDLVVRGTSYWGQGTLVTVSS
chain 2: not shown
B3: C2318 (protein)
chain 1: B2 chain 1 with Y58F, N83D
chain 2: not shown
B4: C1406 (protein)
chain 1: QVQLVQSGAEVKKPGASVKVSCKASGYTFTSYYMHWVRQAPGQGLEWMGIINPSGGSTTYAQRFQGRVTMTRDTSTRTVYMELSSLRSEDTAVYYCARDIAGVPAAIGCEYWGQGTLVTVSS
chain 2: DIQLTQSPSSLSASVGDRVTITCRTSQTITSYLNWYQQKPGKAPKLLIYAASSLQSGVPSRFSGSGSGTDFTLTINNLQPEDFATYYCQQSYRTPRFTFGPGTKVDIK
B5: C1414 (protein)
chain 1: QVQLQESGPGLVKPSETLSLTCNVSGGSISSYYWSWIRQPPGKGLEWIGYIYYSGSTNYNPSLKSRVIISVDTSKKQFSLKLSSVTAADTAVYYCARHYDSSGYTYNWFDPWGQGTLVTVSS
chain 2: QSVLTQPPSVSGAPGQRVTISCTGSSSNIGAGFDVHWYQQLPGTAPKLLIYGNSNRPSGVPDRFSGSKSGTSASLAITGLQAEDEADYYCQSYDSSLSSLVFGGGTKLTVL
B6: C2009 (protein)
chain 1: QVQLQQWGTGLLKPSETLSLTCAVYGGSFSGYYWSWIRQPPGKGLEWIGDINHSGATNDNPSLKSRVTISVDTSKSQFSLQLSSVTAADTAVYYCARGIKEGADSLYGFWSGARPPAYYYAMDVWGQGTTVTVSS
chain 2: IRMTQSPSSLSASVEDRVTITCRASQDISNYLAWFQQKPGKAPKSLIYAASSLQSGVPSKFSGSGSGTDFTLTISSLQPEDFATYYCLQYYTYPLTFGGGTKVEIK
B7: C2331 (protein)
chain 1: QVQLVQSGAEVKKPGASVKVSCKASGYTFTSYDINWVRQATGQGLEWMGWMNPNSGNTAYAQKFQGRVTITRNTSISTAYMELSSLRSEDTAVYYCARGTYCSTTICYTRDWFDPWGQGTLVTVSS
chain 2: SYELTQPPSVSVAPEQTARITCGGNNIGSKSVHWYQQKPGQAPVLVVYDDSDRPSGIPERFSGSNSGNTATLTISRVEAGDEADYYCQVWDSSSDPHYVFGTGTKVTVL
B8: C2156 (protein)
chain 1: QVQLVQSGAEVKKPGASVKVSCKASGYTFTSYYMHWVRQAPGQGLEWMGIINPSGGSTSYAQKFQGRVTMTRDTSTSTVYMELSSLRSEDTAVYYCARDIVVVPAKNAFDIWGQGTMVTVSS
chain 2: EIVLTQSPATLSLSPGERATLSCRASQSVSSYLAWYQQKPGQAPRLLIYDASNRATGIPARFSGSGSGTDFTLTISSLEPEDFAVYYCQQRSNWPLYTFGQGTKLEIK
B9: C2309 (protein)
chain 1: EVQLVQSGAEVKKPGESLKISCKGSGYNFTSYWIGWVRQMPGKGLEWMGIICPGDSDTRYSPSFQGQVTISADKSISTAYLQWSSLKASDTAMYYCAIAKYMYYDILTGYYNDGWSFDPWGQGTLVTVSS
chain 2: QSALTQPASVSGSPGQSITISCTGTSSDVGGYNYVSWYQQHPGKAPKLMISEVSNRPSGVSNRFSGSKSGNTASLTISGLQSEDEADYYCSSYTSSSTLGVFGGGTKLTVL
B10: C2307 (protein)
chain 1: QVQLVQSGAEVKKPGASVKVSCKASGYTFTSYGISWVRQAPGQGLEWMGWISAYNGNTNYAQKLQGRVTMTTDTSTSTAYMELRSLRSDDTAVYYCARASGFMVRGVNPNYYYYMDVWGKGTTVTVSS
chain 2: QSALTQPASVSGSPGQSITISCTGTSSDVGSYNLVSWYQQHPGKAPKLMIYEGSKRPSGVSNRFSGSKSGNTASLTISGLQAEDEADYYCCSYAGSSTWVFGGGTKLTVL
B11: C2329 (protein)
chain 1: B10 chain 1 with A9D, Y32H
chain 2: B10 chain 2
B12: C2155 (protein)
chain 1: EVQLVESGGGLVQPGGSLRLSCAASGFTFSSYWMHWVRQAPGKGLVWVSRINSDGSSTSYADSVKGRFTISRDNAKNTLYLQMNSLRAEDTAVYYCARGQYAFGDFDYWGQGTLVTVSS
chain 2: QSALTQPPSASGSPGQSVTISCTGTSSDVGGYNYVSWYQQHPGKAPKLMIYEVSKRPSGVPDRFSGSKSGNTASLTVSGLQAEDEADYYCSSYAGKDVVFGGGTKLTVL
B13: C2311 (protein)
chain 1: EVQLVESGGGLVQPGRSLRLSCAASGFTFDDYAMHWVRQAPGKGLEWVSGISWNSGSIGYADSVKGRFTISRDNAKNSLYLQMNSLRAEDTALYYCAKAHVDTAMVKGPFWFDPWGQGTLVTVSS
chain 2: EIVMTQSPATLSVSPGERATLSCRASQSVSSNLAWYQQKPGQAPRLLIYGASTRATGIPARFSGSGSGTEFTLTISSLQSEDFAVYYCQQYNNWPPGITFGQGTRLEIK
B14: C1410 (protein)
chain 1: QVQLQESGPGLVKPSGTLSLTCTVSGGSIDSRDWWAWVRQPPGKGLEWIGEIYFTGSTNYNPSLKSRVTISLDNSKTQFSLNLTSVTAADTAVYYCARVALWGINLPSYFSRGFDIWGQGTMVTVSS
chain 2: QSVLTQPPSASGTPGQRVTISCSGSSSNIGSYSVSWYQQFPGTAPKLLIHKNNQRPSGVPDRFSGSKSGTSASLAISGLRSEDEADYYCAAWDDSLSGPNWVFGGGTKVTVL
B15: C2154 (protein)
chain 1: QVQLVQSGAEVKKPGSSVKVSCKASGGTFSNYAFNWVRQGPGQGLEWMGGIIPVFVTPLYAQKFEGRVTITADRSTTTVYMELIGLRSEDTAVYYCARETRGFGDLFGKGYFYYSGMDVWGQGTTVTVSS
chain 2: QSALTQPASVSGSPGQSITISCTGTNRDVGGYNYVSWYQHRPGGAPKLIIFEVTNRPSGVSSRFSGSKSGSTASLTISGLQSEDEADYYCSSYRDTNTRVFGGGTKLTVL
B16: C2319 (protein)
chain 1: EVQLVESGGGLIQPGGSLRLSCAASVFTVSSNYMSWVRQAPGKGLEWVSVIYSGGSTFYADSVKGRFTISRDNSKNTLYLQMNSLRAEDTAVYYCARDYGDFYFDYWGRGTLVTVSS
chain 2: not shown
B17: C1413 (protein)
chain 1: EVQLVESGGGLVQPGGSLRLSCAASGFTFSSYNMNWVRQAPGKGLEWVSYISGTSTTIYYADSVQGRFTISRDNAKNSLYLQMNSLRDEDTAVYYCARGLGPKSYYYYGMDVWGQGTTVTVSS
chain 2: DIQLTQSPSSLSASVGDRVNIACRASQSIASYLSWYQQKPGKAPKLLISGASSLQGGVPSRFSGSGSGTDFTLTISGLQPEDFATYYCQQTYSTPQVFGQGTKLEIK

Experiments:
[1] = target: SARS-CoV-2 Wuhan-Hu-1 spike pseudovirus; test: pseudovirus neutralization IC50; higher = weaker neutralization
Description: (§1)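 Single-round luciferase reporter pseudovirus mixed with antibody dilutions and put on 293T-ACE2 cells for 48 h; signal relative to no-antibody wells, four-parameter fit.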

[2] = target: SARS-CoV-2 Wuhan-Hu-1 spike pseudovirus; test: pseudovirus neutralization IC90; higher = weaker neutralization
Description: as §1

[3] = target: SARS-CoV-2 Wuhan-Hu-1 spike receptor-binding domain; test: ELISA binding EC50; higher = weaker binding; ELISA of recombinant human antibody on coated antigen, from 10 µg/ml in fourfold dilutions; four-parameter fit.

Row | Binder | pseudovirus neutralization IC50 [1] [µg/mL] | pseudovirus neutralization IC90 [2] [µg/mL] | ELISA binding EC50 [3] [µg/mL]
1 | B1 | 0.503 | > 1 | 0.00182
2 | B2 | 0.289 | > 1 | 0.00655
3 | B3 | 0.116 | 0.684 | 0.00265
4 | B4 | > 1 | > 1 | 0.00272
5 | B5 | 0.00198 | 0.0308 | 0.00326
6 | B6 | > 1 | > 1 | > 10
7 | B7 | > 1 | > 1 | 0.00296
8 | B8 | > 1 | > 1 | 0.0198
9 | B9 | > 1 | > 1 | 0.0106
10 | B10 | 0.0964 | 0.729 | 0.00256
11 | B11 | 0.00568 | 0.0607 | 0.00201
12 | B12 | > 1 | > 1 | > 10
13 | B13 | > 1 | > 1 | 0.00331
14 | B14 | 0.0174 | 0.162 | 0.00284
15 | B15 | > 1 | > 1 | 0.00204
16 | B16 | 0.0048 | 0.0358 | 0.00279
17 | B17 | > 1 | > 1 | 0.0025
